For 31 molecules, binding signal results are on record in article PMC9911399, “Two distinct binding modes provide the RNA-binding protein RbFox with extraordinary sequence specificity”.

T1: RBFOX1 RRM (Homo sapiens, UniProt Q9NWB1 109-208)
T1 sequence: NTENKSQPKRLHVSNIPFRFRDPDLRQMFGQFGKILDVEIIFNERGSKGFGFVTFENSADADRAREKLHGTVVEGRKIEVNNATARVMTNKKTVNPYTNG

B1: CUGCAUG (DNA:RNA)
RNA: GGGAGACCGGAAUUCAGAUUGUCCCUGCAUGUUAAAUCCCGUCGUAGCCACCA
DNA 1: CAATCTGAATTCCGGTCTCCC
DNA 2: TGGTGGCTACGACGGGATT
B2: CCCCGCG (DNA:RNA)
RNA: B1 RNA with U26C, G27C, A29G, U30C
DNA 1: CAATCTGAATTCCGGTCTCCC
DNA 2: TGGTGGCTACGACGGGATT
B3: GCUGUAC (DNA:RNA)
RNA: GGGAGACCGGAAUUCAGAUUGUCCGCUGUACUUAAAUCCCGUCGUAGCCACCA
DNA 1: CAATCTGAATTCCGGTCTCCC
DNA 2: TGGTGGCTACGACGGGATT
B4: UCUGUCG (DNA:RNA)
RNA: B3 RNA with G25U, A30C, C31G
DNA 1: CAATCTGAATTCCGGTCTCCC
DNA 2: TGGTGGCTACGACGGGATT
B5: CACGCCG (DNA:RNA)
RNA: B1 RNA with U26A, G27C, C28G, A29C, U30C
DNA 1: CAATCTGAATTCCGGTCTCCC
DNA 2: TGGTGGCTACGACGGGATT
B6: CUGUGGU (DNA:RNA)
RNA: B1 RNA with C28U, A29G, U30G, G31U
DNA 1: CAATCTGAATTCCGGTCTCCC
DNA 2: TGGTGGCTACGACGGGATT
B7: UGCUCCG (DNA:RNA)
RNA: B1 RNA with C25U, U26G, G27C, C28U, A29C, U30C
DNA 1: CAATCTGAATTCCGGTCTCCC
DNA 2: TGGTGGCTACGACGGGATT
B8: AAGUGAA (DNA:RNA)
RNA: B1 RNA with C25A, U26A, C28U, A29G, U30A, G31A
DNA 1: CAATCTGAATTCCGGTCTCCC
DNA 2: TGGTGGCTACGACGGGATT
B9: GAGAGCC (DNA:RNA)
RNA: B3 RNA with C26A, U27G, G28A, U29G, A30C
DNA 1: CAATCTGAATTCCGGTCTCCC
DNA 2: TGGTGGCTACGACGGGATT
B10: UAGCAUU (DNA:RNA)
RNA: B1 RNA with C25U, U26A, G31U
DNA 1: CAATCTGAATTCCGGTCTCCC
DNA 2: TGGTGGCTACGACGGGATT
B11: CCCGAUA (DNA:RNA)
RNA: B1 RNA with U26C, G27C, C28G, G31A
DNA 1: CAATCTGAATTCCGGTCTCCC
DNA 2: TGGTGGCTACGACGGGATT
B12: AACUCUU (DNA:RNA)
RNA: B1 RNA with C25A, U26A, G27C, C28U, A29C, G31U
DNA 1: CAATCTGAATTCCGGTCTCCC
DNA 2: TGGTGGCTACGACGGGATT
B13: AGUUGCG (DNA:RNA)
RNA: B1 RNA with C25A, U26G, G27U, C28U, A29G, U30C
DNA 1: CAATCTGAATTCCGGTCTCCC
DNA 2: TGGTGGCTACGACGGGATT
B14: UCGGGGG (DNA:RNA)
RNA: B1 RNA with C25U, U26C, C28G, A29G, U30G
DNA 1: CAATCTGAATTCCGGTCTCCC
DNA 2: TGGTGGCTACGACGGGATT
B15: GCUUCCA (DNA:RNA)
RNA: B3 RNA with G28U, U29C, A30C, C31A
DNA 1: CAATCTGAATTCCGGTCTCCC
DNA 2: TGGTGGCTACGACGGGATT
B16: CUAAAGA (DNA:RNA)
RNA: B1 RNA with G27A, C28A, U30G, G31A
DNA 1: CAATCTGAATTCCGGTCTCCC
DNA 2: TGGTGGCTACGACGGGATT
B17: UGACAUC (DNA:RNA)
RNA: B1 RNA with C25U, U26G, G27A, G31C
DNA 1: CAATCTGAATTCCGGTCTCCC
DNA 2: TGGTGGCTACGACGGGATT
B18: CCCGACG (DNA:RNA)
RNA: B1 RNA with U26C, G27C, C28G, U30C
DNA 1: CAATCTGAATTCCGGTCTCCC
DNA 2: TGGTGGCTACGACGGGATT
B19: UGAUUGC (DNA:RNA)
RNA: B3 RNA with G25U, C26G, U27A, G28U, A30G
DNA 1: CAATCTGAATTCCGGTCTCCC
DNA 2: TGGTGGCTACGACGGGATT
B20: CGUUACU (DNA:RNA)
RNA: B1 RNA with U26G, G27U, C28U, U30C, G31U
DNA 1: CAATCTGAATTCCGGTCTCCC
DNA 2: TGGTGGCTACGACGGGATT
B21: GAGACUG (DNA:RNA)
RNA: B1 RNA with C25G, U26A, C28A, A29C
DNA 1: CAATCTGAATTCCGGTCTCCC
DNA 2: TGGTGGCTACGACGGGATT
B22: GGUUCAC (DNA:RNA)
RNA: B3 RNA with C26G, G28U, U29C
DNA 1: CAATCTGAATTCCGGTCTCCC
DNA 2: TGGTGGCTACGACGGGATT
B23: ACCCUCC (DNA:RNA)
RNA: B3 RNA with G25A, U27C, G28C, A30C
DNA 1: CAATCTGAATTCCGGTCTCCC
DNA 2: TGGTGGCTACGACGGGATT
B24: AGACUAC (DNA:RNA)
RNA: B3 RNA with G25A, C26G, U27A, G28C
DNA 1: CAATCTGAATTCCGGTCTCCC
DNA 2: TGGTGGCTACGACGGGATT
B25: GGGUCCU (DNA:RNA)
RNA: B1 RNA with C25G, U26G, C28U, A29C, U30C, G31U
DNA 1: CAATCTGAATTCCGGTCTCCC
DNA 2: TGGTGGCTACGACGGGATT
B26: GAAAACA (DNA:RNA)
RNA: B1 RNA with C25G, U26A, G27A, C28A, U30C, G31A
DNA 1: CAATCTGAATTCCGGTCTCCC
DNA 2: TGGTGGCTACGACGGGATT
B27: AAUCUAA (DNA:RNA)
RNA: B3 RNA with G25A, C26A, G28C, C31A
DNA 1: CAATCTGAATTCCGGTCTCCC
DNA 2: TGGTGGCTACGACGGGATT
B28: UGAGCCA (DNA:RNA)
RNA: B3 RNA with G25U, C26G, U27A, U29C, A30C, C31A
DNA 1: CAATCTGAATTCCGGTCTCCC
DNA 2: TGGTGGCTACGACGGGATT
B29: CGGACCC (DNA:RNA)
RNA: B1 RNA with U26G, C28A, A29C, U30C, G31C
DNA 1: CAATCTGAATTCCGGTCTCCC
DNA 2: TGGTGGCTACGACGGGATT
B30: ACGCACU (DNA:RNA)
RNA: B1 RNA with C25A, U26C, U30C, G31U
DNA 1: CAATCTGAATTCCGGTCTCCC
DNA 2: TGGTGGCTACGACGGGATT
B31: UACUACC (DNA:RNA)
RNA: B1 RNA with C25U, U26A, G27C, C28U, U30C, G31C
DNA 1: CAATCTGAATTCCGGTCTCCC
DNA 2: TGGTGGCTACGACGGGATT

Residue numbers refer to the chain shown, from its start. The list shows a part of the results.

The target of this experiment is T1, RBFOX1 RRM. The experiment is described as follows: EMSA; HiTS-Eq, 1 nM pool, 10 min; buffer printed only for the single-RNA assays: 10 mM Tris pH 7.5, 150 mM NaCl, 3.4 mM EDTA, 0.001% NP-40, 30 C. The note with it: tags: His6 N-terminal (pET28a); label: 5' 32P. Put shortly: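 Purified RbFox RRM, wild type or mutant, was incubated for 10 min in 50 µL with 1 nM of a 5′-radiolabelled RNA pool carrying 7 randomized nucleotides, whose flanks were annealed to DNA oligonucleotides, over a series of increasing protein concentrations. Unbound RNA was resolved on 8% native PAGE, cut out, reverse-transcribed, barcoded by PCR and sequenced on an Illumina HiSeq 2500. Relative association constants were derived from changes in read counts for each RNA species versus the control reaction and normalised to the cognate motif.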
Background: A gel shift assay detects complexes by their altered migration in electrophoresis.
Turning to B1, the binding signal is 1.04 KA relative to UGCAUGU.

As to B2, the binding signal was 0.00596 KA relative to UGCAUGU.

Regarding B3, the binding signal is 0.018 KA relative to UGCAUGU.

Take B4: the binding signal is 0.0246 KA relative to UGCAUGU.

In the case of B5, the binding signal is 0.00195 KA relative to UGCAUGU.

Consider B6, for which the binding signal was 0.0208 KA relative to UGCAUGU.

Regarding B7, the binding signal is 0.0132 KA relative to UGCAUGU.

Take B8: the binding signal is 0.00229 KA relative to UGCAUGU.

As to B9, the binding signal was 0.0145 KA relative to UGCAUGU.

On to B10, for which the binding signal was 0.0115 KA relative to UGCAUGU.

Regarding B11, the binding signal is 0.00513 KA relative to UGCAUGU.

For B12, the binding signal is 0.000511 KA relative to UGCAUGU.

As to B13, the binding signal was 0.0152 KA relative to UGCAUGU.

For B14, the binding signal was 0.0101 KA relative to UGCAUGU.

B15: the binding signal was 0.00903 KA relative to UGCAUGU.

Consider B16, for which the binding signal was 0.0053 KA relative to UGCAUGU.

With B17, the binding signal is 0.0111 KA relative to UGCAUGU.

Regarding B18, the binding signal was 0.0192 KA relative to UGCAUGU.

With B19, the binding signal is 0.0265 KA relative to UGCAUGU.

B20: the binding signal is 0.00711 KA relative to UGCAUGU.

B21: the binding signal was 0.0149 KA relative to UGCAUGU.

As for B22, the binding signal is 0.0163 KA relative to UGCAUGU.

Regarding B23, the binding signal is 0.000977 KA relative to UGCAUGU.

With B24, the binding signal was 0.00512 KA relative to UGCAUGU.

In the case of B25, the binding signal is 0.016 KA relative to UGCAUGU.

For B26, the binding signal was 0.00224 KA relative to UGCAUGU.

B27: the binding signal was 0.00253 KA relative to UGCAUGU.

As to B28, the binding signal was 0.00784 KA relative to UGCAUGU.

For B29, the binding signal is 0.0213 KA relative to UGCAUGU.

B30: the binding signal was 0.00728 KA relative to UGCAUGU.

Take B31: the binding signal is 0.0026 KA relative to UGCAUGU.
